Reference: patent US20240409609A1, “REVERSIBLE LYSINE COVALENT MODIFIERS OF EGFR AND USES THEREOF” (Terremoto Biosciences, Inc., priority 2021, published 2024)

How the values were obtained:
[1] = target: EGFR L858R/T790M/C797S triple-mutant protein (Homo sapiens (Human), UniProt P00533, C797S/L858R/T790M); assay: Intact-protein mass spectrometry of EGFR protein incubated with compound; type: binding
[2] = target: EGFR L858R/T790M/C797S triple-mutant protein (residues 668-1210) (Homo sapiens (Human), UniProt P00533, C797S/L858R/T790M); assay: Intact mass spectrometry of covalent binding with brigatinib competition; conditions: compound 1.5 uM, EGFR 0.8 uM, NaBH4 reduction; for covalent complex formation by intact mass spectrometry: absence of competitor; for covalent complex formation by intact mass spectrometry in presence of competitor: excess brigatinib 20 uM
Protocol: Identification of covalent binding by intact mass spectrometry for Table 5 compounds For intact mass spectrometry experiments EGFR L^858R/T790M/C797S triple-mutant protein (residues 668-1210, Biortus, 0.8 uM) was incubated with compound from Table 5 (1.5 uM).
Freshly dissolved NaBH4 in PBS was added to 5 mM final concentration for 30 min on ice to reduce imines into mass-spec stable amines. Reduction reactions were quenched by addition of 100% volume acetonitrile+1% TFA prior to injection on a Waters BioAccord LC-MS.

EGFR L858R/T790M/C797S [3] = target: T1, EGFR L858R/T790M/C797S (Homo sapiens (Human), UniProt P00533, C797S/L858R/T790M); assay: EGFR jump dilution study; type: biochemical; conditions: for off-rate kinetics after jump dilution: 100-fold dilution, 1 mM ATP, up to 10 hrs
Protocol: (§1) Enzyme:inhibitor complexes were pre-formed at EGFR 100Y^1 final reaction concentration by incubating enzyme with an inhibitor at the greater concentration of either 10Y^1 inhibitor IC50, or 1:1.2 stoichiometry with enzyme.
(§2) After incubating enzyme:inhibitor complexes on ice for 30 min, reactions were diluted in two steps 100-fold into reaction buffer supplemented with 1 mM ATP, and 20 uM AssayQuant substrate (AQT0734), with final reaction volumes of 20 μL in a 384 well reaction plate. Wells were read immediately and at timepoints post-dilution for up to 10 hrs in a PerkinElmer Ensight plate reader, according to the AssayQuant manufacturer's instructions.
(§3) Data processing: Raw fluorescence signal was first background corrected by subtracting the fluorescence intensity of wells containing only the AssayQuant substrate, and no enzyme. Enzyme activity was normalized relative DMSO controls for each enzyme at each timepoint. In this way, DMSO-treated wells appear as a constant normalized activity=1 throughout the assay.
(§4) The X-axis of each of the three graphs represents the time after dilution that the enzyme activity was measured, with t=0 representing the time of jump dilution. The Y-axis of each graph provides the enzymatic activity at each time point. Enzymatic activity is normalized to the DMSO-treated control samples (i.e., the same enzyme variant treated with DMSO instead of compound). As such, a DMSO-normalized value of 1.0 represents full enzymatic activity (i.e., equivalent to the DMSO-treated control), while a value below 1.0 represents reduced activity relative to control (i.e., some degree of enzyme inhibition at the time measured). The data points over time (e.g., from 0 to 600 minutes post-dilution) are therefore indicative of the off-rate for the compound. […] Thus, the jump-dilution data provided a qualitative estimate of the off-rate kinetics for each compound against the panel of EGFR variants. Experiments were run in duplicate, resulting in two different data sets for each graph.

EGFR del19/T790M/C797S = EGFR del19/T790M/C797S (Homo sapiens (Human), UniProt P00533, C797S/DEL746-750/T790M); assay: EGFR jump dilution study; type: biochemical; conditions: 100-fold dilution, 1 mM ATP, up to 10 hrs
Protocol: as §1, §2, §3, §4

[4] = target: EGFR L858R/T790M/C797S protein (residues 668-1210) (Homo sapiens (Human), UniProt P00533, C797S/L858R/T790M); assay: Intact mass spectrometry of covalent binding with BI-4020 competition; conditions: compound 4.4 uM, EGFR 2.2 uM, NaBH4 reduction, with and without BI-4020 30 uM
Protocol: Freshly dissolved NaBH4 in PBS was added to 5 mM final concentration for 5 min at room temperature to reduce imines to mass-spec stable amines. Reduction reactions were quenched by addition of 100% volume acetonitrile+1% TFA prior to injection on a Waters BioAccord L^C-MS.

[5] = target: EGFR (d746-750) T790M C797S (Homo sapiens (Human), UniProt P00533, C797S/DEL746-750/T790M); assay: EGFR biochemical assay (AssayQuant chelation-enhanced fluorescence); conditions: read-out: AssayQuant EGFR del19/TM/CS IC50; 30 min preincubation, reaction time 150 min
EGFR L858R/T790M/C797S [6] = target: T1, EGFR L858R/T790M/C797S; assay: as above; conditions: read-out: AssayQuant EGFR LR/TM/CS IC50; 30 min preincubation, reaction time 150 min
[7] = target: EGFR T790M C797S L858R in Ba/F3 cells (Homo sapiens (Human), UniProt P00533, C797S/L858R/T790M); assay: Ba/F3 pEGFR assay (AlphaLISA p-EGFR Tyr1068); type: cell-based; conditions: 2 hrs treatment
Protocol: (§5) Cellular activity was determined using the Ba/F3 system for studying oncogenic mutant kinases (Warmuth 2007). […] Transduced cells were maintained in RPMI 1640 with 10% FBS. EGFR WT transduced cells were grown in media supplemented with EGF. To assay cellular activity of inhibitors, cells were treated with inhibitor from 1000X DMSO stock dilutions and incubated for 2 hrs at 37° C. 5% CO2. Subsequently, p-EGFR (Tyr1068) was quantified using a commercial sandwich immunoassay (PerkinElmer AlphaLISA SureFire assay; ALSU-PEGFR) according to the manufacturer's instructions. […] Curr Opin Oncol 19, 55-60 (2007), which is incorporated herein in its entirety.

[8] = target: EGFR del746-750 T790M C797S in Ba/F3 cells (Homo sapiens (Human), UniProt P00533, C797S/DEL746-750/T790M); assay: Ba/F3 pEGFR assay (AlphaLISA p-EGFR Tyr1068); type: cell-based; conditions: 2 hrs treatment; read-out: pEGFR Ba/F3 del19/T790M/C797S IC50
Protocol: as §5

Row | SMILES | covalent complex formation (intact-protein mass spectra) [1] | covalent complex formation by intact mass spectrometry [2] | off-rate kinetics after jump dilution (EGFR L858R/T790M/C797S [3]) | DMSO-normalized enzyme activity (EGFR L858R/T790M/C797S [3]; 10 hours (600 minutes) post-dilution) | off-rate kinetics after jump dilution (EGFR del19/T790M/C797S) | covalent complex formation by intact mass spectrometry in presence of competitor [2] | covalent complex formation by intact mass spectrometry [4] | IC50 [5] | IC50 (EGFR L858R/T790M/C797S [6]) | IC50 [7] | IC50 [8]
1 | C#CCNC(=O)c1cc(Nc2cc(C3CC3)[nH]n2)nc(N2CCN(Cc3ccc(C=O)c(O)c3)CC2)n1 [Compound 1] | covalent complex formation | significant level of covalent complex formation | slow-off kinetics | 0.5 | did not exhibit slow-off kinetics | – | – | – | – | – | –
2 | C#CCNC(=O)c1cc(Nc2cc(C3CC3)[nH]n2)nc(N2CCN(Cc3ccc(O)c(C=O)c3)CC2)n1 [Compound 2] | covalent complex formation | significant level of covalent complex formation | – | – | – | – | – | – | – | – | –
3 | COc1cc(N2CCC(N3CCN(C)CC3)CC2)ccc1Nc1ncc(-c2ccc(O)c(C=O)c2)c(Nc2ccccc2)n1 [Compound 3] | – | a significant amount of covalent complex was observed | slow-off kinetics | – | slow-off kinetics | essentially no covalent complex formation | covalent complex formed between the protein and Compound 3 | 158 nM | 76.9 nM | – | –
4 | COc1cc(N2CCC(N3CCN(C)CC3)CC2)ccc1Nc1ncc(-c2ccc(C=O)c(O)c2)c(Nc2ccccc2)n1 [Compound 4] | – | only peaks corresponding to unmodified protein were observed | – | – | – | only peaks corresponding to unmodified protein were observed | – | 83 nM | 48.8 nM | > 10000 nM | 8340 nM
5 | COc1cc(N2CCC(N3CCN(C)CC3)CC2)ccc1Nc1ncc(-c2cccc(C=O)c2O)c(Nc2ccccc2)n1 [Compound 5] | – | only peaks corresponding to unmodified protein were observed | – | – | – | only peaks corresponding to unmodified protein were observed | – | 18.8 nM | 8.09 nM | > 10000 nM | 2020 nM
6 | COc1cc(N2CCC(N3CCN(C)CC3)CC2)ccc1Nc1ncc(Cl)c(Nc2ccccc2-c2cccc(C=O)c2O)n1 [Compound 6] | – | presence of covalent complex | rapid reversion to a DMSO-normalized enzyme activity value of nearly 1.0 | – | rapid reversion to a DMSO-normalized enzyme activity value of nearly 1.0 | – | – | 364 nM | 164 nM | – | –
7 | COc1cc(N(C)CCN(C)C)c(NC(C)=O)cc1Nc1nccc(-c2cn(Cc3cccc(C=O)c3O)c3ccccc23)n1 [Compound 7] | – | presence of covalent complex | slow-off kinetics | – | rapid reversion to a DMSO-normalized enzyme value of roughly 1.0 | No covalent complex formation is observed | some covalent complex was formed | – | – | – | –
8 | COc1cc(N(C)CCN(C)C)ccc1Nc1ncc(-c2ccc(O)c(C=O)c2)c(-c2cn(C)c3ccccc23)n1 [Compound 8] | – | presence of covalent complex | – | – | – | No covalent complex formation was observed | – | 252 nM | 602 nM | > 10000 nM | > 10000 nM
